According to PubChem BioAssay AID504444 (National Center for Advancing Translational Sciences (NCATS), 2011):
Screen size: about 360,000 compounds; about 7,500 (2.1%) were called active. Inconclusive results (about 20%) are left out. Calls come from the whole dose curve; as a rule, active = well fitted inhibition curve with a large enough effect; inconclusive = small, poorly fitted or top-dose-only effect, or effect the other way; inactive = flat fitted curve, though single readings scatter. The entries are a selection whose mix differs from that of the whole data set. The source holds several records for some structures; these can differ, active in one and inactive in another.

Assay: Nrf2 qHTS screen for inhibitors; note: nearly all actives have a fitted effect of over 60% in size
Conditions: A549 ARE-Fluc reporter, luciferase luminescence, 18-24 h; series mostly up to 46 µM; activity change, negative = inhibition: at the top concentration
Outline: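 Quantitative HTS in A549 cells stably bearing an antioxidant response element-firefly luciferase construct. Inhibition of Nrf2-driven transcription was scored by luminescence after 18-24 h of compound exposure at 37 °C.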
% is set by controls: 0 for no effect and ±100 for the full control effect; potency is the fitted concentration of half-maximal effect.

Row | Structure (SMILES) | activity change, negative = inhibition | Potency
1 | Cc1ccc(-c2csc3n[nH]c(=S)n23)cc1 | inactive: -10.8% | 
2 | Cc1nnsc1C(=O)NC1CCCc2c1cnn2-c1ccc(C(C)(C)C)cc1 (stereo unspecified) |  | active: 2.06 µM
3 | Cn1cccc1C(=O)NC(=O)COC(=O)c1ccc(S(C)(=O)=O)c([N+](=O)[O-])c1 | inactive: 2.7% | 
4 | CN1CCN(C(=O)/C(=C\c2cccnc2)NC(=O)c2cccc(Br)c2)CC1 | inactive: -2.88% | 
5 | CN1CCN(Cc2nc3ccccc3c(=O)n2Cc2nc(-c3ccc4ccccc4c3)cs2)CC1 | inactive: 3.26% | 
6 | C[C@H]1CC[C@]2(O[C@H](CCO)C[C@@H](O)[C@@H]2O)O1 | inactive: -25.6% | 
7 | O=C(CSc1nc2ccccc2c(=O)n1CCCN1CCOCC1)Nc1cccc(S(=O)(=O)N2CCCCCC2)c1 |  | active: 23.1 µM
8 | COc1nc(-c2ccc(C)cc2)ccc1-c1noc(-c2cccnc2)n1 | inactive: -23.4% | 
9 | C/C(N)=C(/C#N)C(=O)COC(=O)c1cc(-c2ccc(Br)cc2)nc2ccccc12 | inactive: -24.2% | 
10 | COc1ccc(OC)c(CCNC(=O)C2CCN(c3ncnc4c3nc3n4CCCCC3)CC2)c1 | inactive: -10.9% | 
11 | COc1ccccc1S(=O)(=O)NCc1ccc(C(=O)N(C)Cc2ccc(F)cc2)cc1 |  | active: 23.1 µM
12 | CCOc1ccc(N(CC(=O)Nc2cccc(F)c2)S(=O)(=O)c2c(C)noc2C)cc1 |  | active: 13 µM
13 | CCc1nc(C)cn1S(=O)(=O)c1cc(Br)ccc1OC |  | active: 23.1 µM
14 | CCC1CN(C(=O)NCc2ccc(F)cc2)c2ccccc2O1 (stereo unspecified) | inactive: -1.27% | 
15 | OCC[C@@H]1C[C@@H](O)[C@H](O)[C@]2(Cc3ccccc3CO2)O1 | inactive: -12.3% | 
16 | O=C1NC(=S)S/C1=C\c1cc2ccccc2nc1N1CCCCC1 |  | active: 20.6 µM
17 | COC(C[C@H]1O[C@H]1[C@@H](O)[C@@H](C)OCc1ccccc1)OC | inactive: -0.75% | 
18 | CCOC(=O)c1ccc(NC(=O)c2nc(S(=O)(=O)Cc3ccccc3)ncc2Cl)cc1 | inactive: -5.26% | 
19 | COc1ccc(Cl)cc1NC(=O)CCCn1c(=O)c2cccn2c2cccnc21 |  | active: 16.4 µM
20 | COc1ccc(CN2CCN(C(=O)C3CCN(S(=O)(=O)c4cccs4)CC3)CC2)c(OC)c1OC |  | active: 14.6 µM
21 | Cc1ccc(C)c(NS(=O)(=O)c2ccc3c(c2)Cc2cc(S(=O)(=O)Nc4cc(C)ccc4C)ccc2-3)c1 |  | active: 13 µM
22 | CCC(=O)N1c2ccccc2C(N(C(C)=O)c2ccccc2)CC1C (stereo unspecified) | inactive: 7.82% | 
23 | COc1ccc(CN2CCN(S(=O)(=O)c3ccc(NC(C)=O)cc3)CC2)c(OC)c1OC | inactive: -4.24% | 

Row | Structure (SMILES) | activity change, negative = inhibition | Potency
24 | COc1ccc(NC(=O)c2ccc3c(c2)CCN3S(=O)(=O)c2ccccc2)cc1 | inactive: -13.5% | 
25 | CCc1nn(CCCC(=O)NC(C)c2ccccc2)c(=O)c2cc3occc3n12 (stereo unspecified) | inactive: -14.5% | 
26 | CC(CNC(=O)CCS(=O)(=O)c1cc2c(cc1Cl)NC(=O)CO2)c1ccccc1 (stereo unspecified) | inactive: 10% | 
27 | CC(C)C[C@H](NC(=O)C1CCC(CNC(=O)[C@@H]2CCCN2C(=O)OC(C)(C)C)CC1)C(=O)O (stereo partly specified) | inactive: 2.78% | 
28 | O=C(Nc1nnc(S(=O)(=O)N2CCOCC2)s1)c1ccc(F)cc1 | inactive: 14.2% | 
29 | COc1ccc(C(CCN2CCN(c3ccccc3)CC2)c2c(OC)cc(OC)c3c(-c4ccccc4)cc(=O)oc23)cc1 (stereo unspecified) | inactive: -0.355% | 
30 | C[C@H]1CC[C@@]2(O[C@@H](CCO)C[C@H](O)[C@H]2O)O1 | inactive: -8.53% | 
31 | CNC(=O)/C(C#N)=C/c1cc(C)n(-c2ccc(N3CCOCC3)cc2)c1C | inactive: 9.32% | 
32 | Cc1cccc(NS(=O)(=O)c2ccc3nc(-c4ccccc4)[nH]c3c2)c1C | inactive: -10.4% | 
33 | O=C(/C=C/c1ccccc1[N+](=O)[O-])Nc1ccccc1 | inactive: 5.41% | 
34 | Cc1ccc2c(c1)N(CC(=O)NCCCN1CCCCC1C)C(=O)c1cccnc1O2 (stereo unspecified) | inactive: 18.8% | 
35 | COc1ccc(CCNC(=O)c2cccc([N+](=O)[O-])c2)cc1OC |  | active: 2.59 µM
36 | C[C@@H](C(=O)Nc1ccc2ccccc2c1)[C@@H]1C[C@@]1(C)[C@@H](NC(=O)c1cccnc1)c1ccccc1 | inactive: 4.27% | 
37 | CCOC(=O)N1CCc2c(sc3c2c(=O)n(Cc2ccccc2)c(=O)n3Cc2ccc(C)cc2)C1 | inactive: -5.45% | 
38 | Nc1ncnc2nc[nH]c12 | inactive: 17.3% | 
39 | COc1ccc(-c2nnc(SCC(=O)N3CCCCC3)o2)cc1 | inactive: 16.9% | 
40 | CN(C)c1ccc(C(=O)N/N=C/c2cc(Br)cc(Br)c2O)cc1 |  | active: 13 µM
41 | CC(C)CC(=O)Nc1nnc(S(=O)(=O)N(C)c2ccc(Cl)cc2)s1 | inactive: -1.21% | 
42 | CC1(C)CC(=O)c2sc(NC(=O)c3cccs3)nc2C1 |  | active: 14.6 µM
43 | CCN1C(=O)[C@@H]2[C@@H](c3ccc(SC4CCCCC4)c(OC)c3)N3CCCC[C@@]3(C(=O)OC)[C@@H]2C1=O | inactive: 25.5% | 
44 | Nc1ccc(C#Cc2ccc3c(=O)c4ccccc4oc3c2)cc1 |  | active: 10.3 µM
45 | Cn1nccc1C(=O)Nc1cc(Cl)ccc1Cl |  | active: 2.91 µM
46 | CCOC(=O)c1cc2c(=O)n3ccccc3nc2n(Cc2ccco2)c1=NC(=O)c1ccccc1OC | inactive: 6.22% [at 9.27 µM] | 

Row | Structure (SMILES) | activity change, negative = inhibition | Potency
47 | NC(=O)C1CCN(c2nc(-c3ccc(Br)cc3)cs2)CC1 | inactive: -18% | 
48 | O=C(N/N=C/C(Br)=C/c1ccccc1)c1n[nH]c2c1CCC2 | inactive: -10.2% | 
49 | COc1cc(/C=C2/S/C(=N/S(=O)(=O)Cc3ccccc3)NC2=O)c([N+](=O)[O-])cc1OC | inactive: -7.35% | 
50 | Nc1c(C(=O)NCc2ccc3c(c2)OCO3)nnn1CC(=O)Nc1ccc(Br)cc1 | inactive: -23.8% | 
51 | COc1cccc(NC(=O)CN2C(=O)COc3ccc(S(=O)(=O)N4CCCCCC4)cc32)c1 | inactive: 1.41% | 
52 | Cc1cc(Br)ccc1SCC(=O)OCC(O)=C(C#N)c1nc2ccccc2[nH]1 | inactive: -3.64% | 
53 | Cc1ccc(-c2cc(-c3ccccc3)c3c(N)c(S(C)(=O)=O)sc3n2)cc1 |  | active: 13 µM
54 | CC(C)(C)OC(=O)C[C@H]1C/C=C\C[C@H](CC(=O)N(CCO)Cc2ccccc2)C(=O)NC[C@H](c2ccccc2)OC1=O | inactive: 0.288% | 
55 | C=CC[C@H](CC(=O)N(CCO)Cc1ccccc1)C(=O)N[C@@H](COC(=O)[C@@H](CC=C)CC(=O)OC(C)(C)C)Cc1c[nH]c2ccccc12 |  | active: 20.6 µM
56 | CCOC(=O)N1C(=O)[C@](c2ccc(Cl)cc2)(C(C)C)N1C(=O)OCC | inactive: 9.13% | 
57 | CCCCc1ccc(-c2csc(/C(C#N)=C\c3ccco3)n2)cc1 | inactive: -16% | 
58 | CCN(CC)S(=O)(=O)c1ccc2c(c1)c(=O)c(C(=O)NCCc1ccccc1)cn2C | inactive: 16.6% | 
59 | CCOC(=O)c1c(C)[nH]c(C)c1S(=O)(=O)N(C)CC(=O)NCc1ccc(C)cc1 | inactive: -5.96% | 
60 | CCn1nnnc1NCc1ccc(OCc2ccc(F)cc2Cl)c(OC)c1 |  | active: 20.6 µM
61 | O=C(Nc1ccccc1)C1=C[C@H](C2CC2)C[C@H](OCCCCO)O1 | inactive: 10.3% | 
62 | COc1cccc(NC(=O)Cn2nnc(C(=O)NCc3ccc4c(c3)OCO4)c2N)c1 | inactive: -19.2% | 
63 | O=C(CCn1ccc2cc(S(=O)(=O)N3CCCC3)ccc21)NCc1ccccc1F | inactive: 2.66% | 
64 | CCCN1CNc2c(c(=O)[nH]c(=S)n2CCc2ccc(OC)c(OC)c2)C1 | inactive: -14.9% | 
65 | COc1ccc(C2/C=C\CN(C(=O)c3ccccc3)C(Cc3ccccc3)C(=O)N2Cc2ccc(F)cc2)cc1 (stereo unspecified) | inactive: -10.5% | 
66 | COc1ccc(OC)c(C2=NS(=O)(=O)N(C)C(C(=O)Nc3ccc(F)cc3F)=C2)c1 | inactive: -8.79% | 
67 | CC(C)N(CCCNC(=O)Cn1ncc2c([nH]c3ccccc32)c1=O)Cc1ccccc1 | inactive: 4.43% | 
68 | C=CC[C@@H](CC(=O)N(CCO)Cc1ccccc1)C(=O)N[C@H](C)COC(=O)[C@@H](CC=C)Cc1ccc(F)cc1 | inactive: -16.8% | 
69 | Cc1ccc(C(NC(=O)NC(C)c2ccccc2)C(Cl)(Cl)Cl)cc1F (stereo unspecified) |  | active: 16.4 µM

Row | Structure (SMILES) | activity change, negative = inhibition | Potency
70 | COc1ccccc1C(=O)N/C(=C/c1ccc(Br)cc1)C(=O)NCC(=O)O | inactive: 2.14% | 
71 | C=CCCN(C1CCCC1)S(=O)(=O)c1ccccc1Br | inactive: -1.3% | 
72 | CC[C@@H]1CCCCc2ccccc2[C@H](C(=O)C[C@H](O)CC(C)=O)OC1=O | inactive: 8.65% | 
73 | C[C@@H]1CN([C@@H](C)CO)C(=O)c2cc(NC(=O)Nc3ccc4c(c3)OCO4)ccc2O[C@H]1CN(C)S(=O)(=O)c1cn(C)cn1 | inactive: 3.7% | 
74 | Cc1ccc(C(=O)Nc2nc(=O)[nH]s2)cc1 | inactive: -0.297% | 
75 | CN(C)S(=O)(=O)c1cccc(NC(=O)CSc2nc3ccccc3[nH]2)c1 |  | active: 20.6 µM
76 | CC(=O)c1c(C)[nH]c(C(=O)OCC(=O)NCC(C)C)c1C |  | active: 10.3 µM
77 | COc1ccc(/C=C\C(=O)c2c(O)ccc3c(C)cc(=O)oc23)cc1 | inactive: -27.1% | 
78 | COc1cc(Cl)c(NS(=O)(=O)c2cc3[nH]c(=O)c(=O)[nH]c3cc2C)c(OC)c1 | inactive: 0.895% | 
79 | Cc1ccc(-c2csc(/C=C3/SC(C)C(=O)N3CC(=O)Nc3ccccc3F)n2)cc1 (stereo unspecified) | inactive: -4.76% | 
80 | CCOC(=O)c1ccccc1NC(=O)Cc1ccc(OC)c(S(=O)(=O)N2CCOCC2)c1 |  | active: 18.4 µM
81 | Cc1cc(C)c(OC2(c3ccccc3)OC(=O)c3ccccc32)c(C)c1 (stereo unspecified) |  | active: 9.2 µM
82 | COc1ccc(CCNC(=O)c2ccc(CS(=O)(=O)c3ccc(C)cc3)o2)cc1OC |  | active: 20.6 µM
83 | C[C@H]1CCC[C@]2(O[C@H](CCO)C[C@H](O)[C@H]2O)O1 | inactive: 11.8% | 
84 | CCOc1ccc(CNCCNC(=O)c2nonc2N)cc1 | inactive: 3.28% | 
85 | COc1cc([C@@H]2Nc3c(F)cccc3[C@@H]3C=CC[C@@H]32)cc(Br)c1OC | inactive: 5.17% | 
86 | N#C/C(=C/c1ccc(N2CCOCC2)o1)C(=O)NC1CCCCC1 | inactive: 1.77% | 
87 | Cc1ccc(NC(=O)C2CCCN2S(=O)(=O)c2cccc3cccnc23)c(C)c1 (stereo unspecified) | inactive: -18.1% | 
88 | Cc1ccc(-c2nn(CCC(N)=O)c(=O)c3ccccc23)cc1 | inactive: -16% | 
89 | Cc1ccc(NC(=O)CSc2nc3ccccc3c3nc(CCc4c(C)n[nH]c4C)nn23)cc1F |  | active: 13 µM
90 | CC(=O)c1ccc(NC(=O)CCc2c(C)nn(-c3ccc(N4CCOCC4)nn3)c2C)cc1 | inactive: 21.8% | 
91 | Cc1cc(C)c(S(=O)(=O)NCCc2cc3ccc(C)c(C)c3[nH]c2=O)c(C)c1 | inactive: -3.85% | 
